# Reference: the supplement of paper PMC3334620
# Over roughly 33,000 sequences, “E-score (-0.5 to 0.5)” has its median near -0.021; the highest 2% begin near 0.32. This is one part of the list.
# Biological target: T1, Zap1 (UniProt P47043)
# T1 sequence: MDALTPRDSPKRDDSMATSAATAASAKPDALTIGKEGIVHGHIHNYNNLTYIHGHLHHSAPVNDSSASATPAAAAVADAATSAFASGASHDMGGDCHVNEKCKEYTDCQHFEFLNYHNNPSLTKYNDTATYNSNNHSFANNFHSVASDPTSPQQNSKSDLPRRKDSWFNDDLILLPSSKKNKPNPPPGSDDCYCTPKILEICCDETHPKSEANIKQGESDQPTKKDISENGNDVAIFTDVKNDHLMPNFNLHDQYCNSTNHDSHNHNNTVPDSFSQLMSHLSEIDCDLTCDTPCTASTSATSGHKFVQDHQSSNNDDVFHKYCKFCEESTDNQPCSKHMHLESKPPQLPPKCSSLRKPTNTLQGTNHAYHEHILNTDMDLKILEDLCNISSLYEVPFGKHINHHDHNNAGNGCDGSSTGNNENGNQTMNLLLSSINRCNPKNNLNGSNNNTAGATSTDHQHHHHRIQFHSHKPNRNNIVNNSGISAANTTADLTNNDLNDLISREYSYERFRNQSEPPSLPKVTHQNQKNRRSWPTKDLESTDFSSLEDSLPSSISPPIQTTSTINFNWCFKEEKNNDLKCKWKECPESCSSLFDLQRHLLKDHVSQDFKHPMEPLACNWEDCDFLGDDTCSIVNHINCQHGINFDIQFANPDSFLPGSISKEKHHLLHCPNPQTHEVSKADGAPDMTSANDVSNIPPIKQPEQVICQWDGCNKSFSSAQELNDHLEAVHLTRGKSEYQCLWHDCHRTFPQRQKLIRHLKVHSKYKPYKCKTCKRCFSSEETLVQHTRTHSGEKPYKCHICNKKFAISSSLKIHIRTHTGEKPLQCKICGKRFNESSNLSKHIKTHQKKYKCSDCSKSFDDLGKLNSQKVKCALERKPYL
# Assay: PBM E-score (8-mer binding enrichment) (E-score (-0.5 to 0.5)); higher = stronger / more preferred TF binding; most listed sequences are background and not binding sites
# Conditions: protein concentration: 200 nM; construct: GST-full length
# How it was run: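 For each ungapped eight-base word taken together with its reverse complement, the Universal PBM Analysis Suite assigned an E-score. Binding data came from GST-tagged yeast transcription factors, applied at about 100-200 nM, on universal all-10-mer Agilent arrays made double-stranded by primer extension. Fluorescent anti-GST marked bound protein, and scans were normalised with masliner.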
row,Sequence,PBM E-score
1,CCGGAAGG,0.208
2,ACGTTGAG,-0.0801
3,AAGCCAAA,-0.144
4,CTTTAACC,0.405
5,AACTATGC,-0.0166
6,ATAAACTG,0.154
7,CATAGCCC,-0.312
8,TAGAATAA,0.202
9,CATCTGGC,-0.183
10,AAATTATA,0.202
11,CATTTCGA,-0.0786
12,CTGGAATC,-0.174
13,TCATTGAA,-0.0668
14,GAGCGGGA,-0.122
15,CACAGGCC,-0.0122
16,GGGCACAC,-0.104
17,ACCGGCGA,0.0478
18,ATAAGCAC,-0.00953
19,TACTGACA,0.163
20,CATATAGG,0.0645
21,CTCTATAA,0.00505
22,ACTGTGAT,-0.0423
23,AAACTATC,0.109
24,GGCCAATA,-0.0986
25,CTGGGTGC,-0.134

row,Sequence,PBM E-score
1,ACATCATC,-0.176
2,CGATTCCG,-0.225
3,CTCGTAGA,-0.224
4,AGCTTACA,0.027
5,TAGCGGCA,-0.204
6,GGGAGGAA,-0.255
7,GAAGTGGA,0.00769
8,AAACCAGC,0.184
9,GGAGTATA,-0.0931
10,CCGGACAA,-0.00924
11,AACGCGGC,0.1
12,TCCGGCGA,-0.224
13,GACCTCCA,0.109
14,GTGATCGA,0.186
15,CGGTCTTC,0.204
16,GGAAAGCC,-0.158
17,ATGAATGA,0.0161
18,CCCATGAG,0.0148
19,GTCCCTTA,0.0953
20,TGGTGCAA,0.0118
21,ATTGGCCA,-0.021
22,GAGAGCTA,-0.305
23,AACGACGA,-0.0964
24,ACCGTACA,0.155
25,GAAGATGA,0.0533

row,Sequence,PBM E-score
1,GTACGCCA,-0.104
2,CTGACTAC,-0.125
3,ACTAAACG,-0.0129
4,ATTGACCC,0.108
5,ACTCAACG,-0.059
6,ATAGGTGG,-0.0764
7,ACTTAAGG,0.145
8,ACGGCGCT,-0.198
9,CTGATAGC,-0.121
10,CATTCCGA,-0.0183
11,GGCTCATA,-0.0731
12,TACGACGA,-0.0483
13,GGGGCCCA,0.0748
14,CAAATCAG,0.00535
15,ACCCCAAA,0.337
16,CCTAAATA,0.0807
17,AGCACCTC,0.0338
18,AACAAGGG,0.174
19,ATATTTCA,0.0428
20,AAAATGGT,0.312
21,CGCATCAA,-0.0179
22,AAGATCTG,-0.0123
23,CTCCCAAA,-0.00366
24,AAACAAAC,0.135
25,TGTAGGAA,0.00394

row,Sequence,PBM E-score
1,ACATCCCT,-0.127
2,ATGTCCTA,-0.0727
3,AAATACCG,0.162
4,AAGAGCTG,-0.164
5,CACGTCCC,-0.16
6,AGGTTGAA,0.0804
7,CGCCACAG,-0.248
8,TTATAGAA,0.213
9,AGGCCCAA,-0.0071
10,AGCAGTCA,0.00094
11,CCTGTTTC,0.0289
12,CCGAAATA,0.185
13,ATTGAAAG,0.172
14,AAACCGTG,-0.0225
15,ACTTTTGG,0.225
16,TATCCATA,0.122
17,GCCGCATA,0.102
18,CCTGCAGC,-0.0448
19,CCGTTACA,0.061
20,TATCGGGA,0.00135
21,AAATAGAT,0.146
22,AGTTAGTG,0.123
23,TGCCAACA,-0.0561
24,GTGTGTAA,0.17
25,AGAACCAC,0.285

row,Sequence,PBM E-score
1,ACGATCGT,0.0702
2,GTGGGGAA,0.129
3,CCTCTTGA,0.148
4,GGCCTGTA,-0.164
5,CTGCGCAC,-0.0749
6,AAGGCCAT,0.103
7,GGTGTTAA,0.00917
8,GCCGGTCA,0.0353
9,CGAGTTAC,0.244
10,GCGAAACA,-0.0311
11,ACCATTGC,0.168
12,CTCAATTC,0.111
13,CTCACGAG,0.0376
14,AGAGGTTC,0.231
15,ATCATGCA,-0.0146
16,GGACGAAC,0.00463
17,CCGAATAC,0.112
18,AAATAATG,0.201
19,GCTAAGCA,-0.0537
20,ACCCTGGC,0.183
21,GTAAGATA,0.186
22,CGTTGTAA,0.0257
23,CACATTGA,-0.148
24,ATATGGTA,0.246
25,AACGTAGT,-0.0381

row,Sequence,PBM E-score
1,ATATACAA,0.211
2,GATCACAA,0.193
3,TATCAAAA,0.155
4,ACTACATC,-0.0446
5,CTCGTCAC,0.099
6,CAACTTTA,0.089
7,GAAACGGC,-0.0522
8,CCAAGCAC,0.0683
9,GCCCGAGA,0.124
10,GCATGGCA,-0.19
11,CACCGCAC,-0.033
12,GCGAAACC,0.139
13,CAGCTTGG,-0.0782
14,ACGGGTAA,0.178
15,CTAACCTC,0.305
16,GAGGCCCC,0.00365
17,AGGCCCAT,-0.0467
18,AAAGGAAC,0.226
19,TCTATAGA,-0.0406
20,GCGCCCAA,-0.0151
21,CCGAGAGC,-0.153
22,ATTAGCAA,0.198
23,ACCGCCGC,0.153
24,TATCGTAA,0.104
25,ACCGCGTC,0.0683

row,Sequence,PBM E-score
1,AAAAGCAG,-0.0944
2,GGTGATAC,-0.043
3,ATAAGGAC,-0.0167
4,CAACGGTA,-0.0672
5,ACACGTGC,-0.00761
6,CACAGCAG,0.101
7,ACGGGAGC,-0.278
8,CCAGATGA,-0.0669
9,TAGGTCCA,0.0558
10,TATCTTAA,0.126
11,ATTATCAC,0.157
12,AATACGTA,0.0801
13,GGGGGCGA,-0.284
14,CATGAACG,-0.0671
15,AGTCTCAC,-0.0356
16,CTGCGTAC,-0.0438
17,CTGGCACC,-0.119
18,CCCAAGCC,-0.242
19,CAGCCACA,0.0102
20,AATCGATT,0.128
21,ACCTGCGT,-0.00058
22,GGGTTGAA,0.166
23,ATCAGTCC,-0.463
24,CGCATACG,-0.12
25,CCTTAAGG,0.411

row,Sequence,PBM E-score
1,CGCTAGGA,-0.0207
2,AACCACAT,0.234
3,GAAGTAGC,-0.158
4,GATGGGGA,-0.184
5,GGCCTTTA,0.114
6,GTGGCCAA,0.112
7,GGGAATCA,-0.0643
8,CAAAGCCG,-0.0731
9,AAGGGACG,-0.0626
10,TAAAGGCA,0.0176
11,ACAAAAGT,0.214
12,CGAGTAGA,-0.179
13,ACTTGATG,0.0331
14,ACAAAATC,0.15
15,CAGCGCCG,-0.17
16,CCCCTTCG,-0.0804
17,GCACATAA,0.132
18,CCAGGTAC,0.17
19,AACCTGCC,-0.127
20,CGGAGAAA,0.0268
21,CAGCAGAC,-0.0981
22,CCGTGTCC,-0.0502
23,ACGTATCA,-0.0535
24,CCAGGTAA,0.041
25,AACTAATA,0.314

row,Sequence,PBM E-score
1,TAGAGTAA,0.0912
2,AAGGTTCG,-0.0644
3,AGATCAAG,0.00615
4,GTTGGCAA,0.0181
5,TATGTGAA,-0.0187
6,GCCTAACC,0.125
7,CAAAGTCC,-0.074
8,CGGTTCCC,-0.172
9,CTCCAGAC,-0.165
10,GGGACAAA,0.219
11,CAACCGCC,-0.0608
12,TAGGTTAA,0.319
13,CTTATGTC,0.00435
14,TCCGTTAA,-0.0545
15,AAGCGCTT,0.0687
16,ATCCGGTG,-0.00636
17,CATGGCCC,0.071
18,CCGAGACA,-0.133
19,CCGTATAC,0.0928
